B1: TPR 5TU (parent)
chain: GGAUCUUCUCGAUCUAACAAAAAAGACAAAUCUGCCACAAAGCUUGAGAGCAUCUUCGGAUGCAGAGGCGGCAGCCUUCGGUGGCGCGAUAGCGCCAACGUUCUCAACUAUGACACGCAAAACGCGUGCUCCGUUGAAUGGAGUUUAUCAUG

Variants at the background level are over-represented here.

In this data set the parent is B1. The data set is described as follows: polymerase ribozyme fitness, log enrichment relative to wild type (log ratio); higher = more active; in vitro selection for triplet polymerase activity. In outline:
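Mutant libraries were PCR-built and transcribed for each subunit of a heterodimeric triplet polymerase ribozyme and selected for one round in triplicate at −7 °C, frozen, before gel excision of extended constructs and streptavidin-bead capture. Input and output libraries were Illumina-sequenced, keeping genotypes with ≥10 input reads and ≥1 read per output. Fitness is a logarithmic ratio of genotype to wild-type enrichment, in base 2, using inverse-variance-weighted replicate averages.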
For GGAUCUUCUCGAUCUAACAAAAAAGACAAAUCUGCCACAAAGCUUGAGAGCGUCUUAGGAUGCAGAGGCGGAAGCCUUCGAUGGGGCGAUAGCGCCAACGUUCUCAACUAUGACACGCAAAACGCGUGCUCCGUUGAAUGGAGUUUAUCAUG [A52G C57A C72A G81A C85G], the “polymerase ribozyme fitness (log ratio)” value was ≤ -4.2.
To GGAUCUUCUCGAUCUAACAAAAAAGACAAAUCUGCCACAAAGCUUGAGAGCGUAUUCGGAUGCAGAGGAGGCAGCCUUCGGUGGCGGGACAGCGCCAACUUUAUGAACUAUGACACGCAAAACGCGUGCUCCGUUGAAUGGAGUUUAUCAUG [A52G C54A C69A C87G U90C G100U C103A C105G] belongs ≤ -4.2; to GGAUCUUCUCGAUCUAACAAAAAAGACAAAUCUGCCACAAAGCUUGAGAGCGUCUUCGGAUGCAGAGGCGGUAGCCUUCGGUGGCGCGAUAGCGCUAACGUUCUCAAAUAUGACGCGCAAAACGCGUGCUCCGUUGAAUGGAGGUUAUCAUG [A52G C72U C96U C108A A115G U144G], ≤ -4.2; to GGAUCUUCUCGAUCUAACAAAAAAGACAAAUCUGCCACAAAGCUUGAGAGCGUCUUCGGAUGCAGAGGCGGCAGCCUUCGGUGGCGCGAUAGCGCCUACGUUCUCAACUAUGACACGCAAAACGCGUGCUCCGUUGAAUGGAGUUUAUCAUG [A52G A97U], -0.8.
To GGAUCUUCUCGAUCUAACAAAAAAGACAAAUCUGCCACAAAGCUUGAGAGCGUCUUAGGAUGCAGAGGCGGCUGCCUUCGGUGGCGCGAUAGCGCCAACGUUCUCAACUAUGACACGCAAAACGCGUGCUCCGUUGAAUGGAGUUUAUCAUG [A52G C57A A73U] belongs -0.666; to GGAUCUUCUCGAUCUAACAAAAAAGACAAAUCUGCCACAAAGCUUGAGAGCGUCUUUGGAUGCAGAGGCGGCAGGCUUCGGUGGCGCGAUUGCGGCAACGUUCUCAACUAUGACACGCAAAAAGCGUGCUCCGUUGAAUGGAGUUUAUCAUG [A52G C57U C75G A91U C95G C123A], -4.05; to GGAUCUUCUCGAUCUAACAAAAAAGACAAAUCUGCCACAAAGCUUGAGAGCGUCUUAGGAUGCAGGGCCGGCAGCCUUCGGUGGCGCGAUAGUGCCAACGGUCUCAACUAUUACACGCAAAACGCGUGCUCCGUUGAAUCGAGUAUAUCAUG [A52G C57A A66G G68C C93U U101G G112U G140C U145A], ≤ -4.2.
In the case of GGAUCUUCUCGAUCUAACAAAAAAGACAAAUCUGCCACAAAGCUUGAGAGCGUAAUCGGAUGGAGAGGCGGCAGGUUUCGGUGGCGCGAUAGCGCCAACGUUCCCAACUAUGACACGCACAACGCGAGCUCCGUUGAAUGGAGUUUAUCAUG [A52G C54A U55A C63G C75G C76U U104C A120C U127A] it was ≤ -4.2; in that of GGAUCUUCUCGAUCUAACAAAAAAGACAAAUCUGCCACAAAGCUUGAGAGCGUAUUCGGAUGCAGAGGCGGCAGCCUGCGGUAGCGCGAUAGCGCCAACGUUCUCAACUAUGACACGCAAAACGCGUGCUCCGUUGAAUGGAGAUUAUGAUG [A52G C54A U78G G83A U144A C149G], ≤ -4.2; in that of GGAUCUUCUCGAUCUAACAAAAAAGACAAAUCUGCCACAAAGCUUGAGAGCGUCUUCGGAUGCAGAGGCGGCAGCCUUCGGUGGCGCGAUAGCGCCAACGUUCUCAACUAUGACACGCAGAACGCGUGCUCCGUUGAAUGGAGUUUAUCAGG [A52G A120G U151G], ≤ -4.2.
In the case of GGAUCUUCUCGAUCUAACAAAAAAGACAAAUCUGCCACAAAGCUUGAGAGCGUCUUUGGAUGCAGAGGCGGCAGCCUUCGGUGGCGCGAUUGCGCCAACGUUCUCAAGUAUGACACGCAAAACGCGUGCUCCGUUGAAUGGAGUUUAUCAUG [A52G C57U A91U C108G], the “polymerase ribozyme fitness (log ratio)” value was ≤ -4.2.
To GGAUCUUCUCGAUCUAACAAAAAAGACAAAUCUGCCACAAAGCUUGAGAGCGUAUUCGGAUGCAGAGGCGGCAGCCUUCGGUGGCGCGAUAGCGCCAACGUUCUCGACUAUGACACGCAAAACGCGUGGUCCGUUGAAUGGAGGUUUUCAUG [A52G C54A A106G C129G U144G A147U] belongs ≤ -4.2; to GGAUCUUCUCGAUCUAACAAAAAAGACAAAUCUGCCACAAAGCUUGAGAGCGUAUUCGGAUGCAGAGGCGGCAGCCUUCGGUGUCGCGAUAGCGCCAACGUUCUCAACUUUGACACGCAAAACGCGUGCUCCGUUGAAUGGAGUUUAUCAUG [A52G C54A G84U A110U], ≤ -4.2.
To GGAUCUUCUCGAUCUAACAAAAAAGACAAAUCUGCCACAAAGCUUGAGAGCGUCUUCGGAUGCAGAGGUGGCAGCCUUCGGUGGCGCGAUAGCGCCAACGUUCUCAACUAUGACACGCAUAACGCGUGCUCCGUUGAUUGGAGAUUAUCAUG [A52G C69U A120U A138U U144A] belongs ≤ -4.2; to GGAUCUUCUCGAUCUAACAAAAAAGACAAAUCUGCCACAAAGCUUGAGAGCGUCUUAGGAUGCAGAGGCGGCAGCCUUCGGUGACGCGAUAGCGCCAACGUUCUCAACUAUGACACGCAAAACGCGUGCUCCGUUGAAUGGAGUUUAUCAUG [A52G C57A G84A], -0.599; to GGAUCUUCUCGAUCUAACAAAAAAGACAAAUCUGCCACAAAGCUUGAGAGCGUCUUCGGAUGCAGAGGUGGCAGCCUUCGGUGGCGCGAUAGCGCCAACGUUCUCAACUAUGACACGCAAAACGCGUGCUCCGUUGAAUGGAAUUUAUCAUG [A52G C69U G143A], -2.71.
To GGAUCUUCUCGAUCUAACAAAAAAGACAAAUCUGCCACAAAGCUUGAGAGCGUCUUCGGAUGCAGAGGCGGUAGCCUUCGAUGGCACGAUAGCGCCAACGUUGUCAACUAUGACACGCAAACCGCGUGCUCCGUUGAAUGGAGUUUAUCAUG [A52G C72U G81A G86A C103G A122C] belongs ≤ -4.2; to GGAUCUUCUCGAUCUAACAAAAAAGACAAAUCUGCCACAAAGCUUGAGAGCGUCUUUGGGUGCAGAGGCGGCAGCCUUCGGUGGAGCGAUAGCGCCAACGUUCUCAACUAUGACGCGCAAAACGCGUGCUCCGUUCAAUGGAGUUUAUCAUG [A52G C57U A60G C85A A115G G136C], ≤ -4.2.
In the case of GGAUCUUCUCGAUCUAACAAAAAAGACAAAUCUGCCACAAAGCUUGAGAGCGUCUUAGGAUGCAGAGGCGGCAGCCUUUGGUGGAGCGAUAGCGCCAACGUUCUCAACUAUGACAUGCAAAGCGCGUGCUCCGUUGAAUGGAGUUUAUCAUG [A52G C57A C79U C85A C116U A122G], the “polymerase ribozyme fitness (log ratio)” value is ≤ -4.2.

Values taken from the RNAGym collection of RNA variant scans (doi:10.1073/pnas.2313332121).
